For assay [1], the target named is FHIP1A tagged at the carboxy terminus with BioID2 and 3xFLAG (human) (UniProt Q05DH4). Nature of the assay: co-IP; FLAG affinity resin IP of FHIP-BioID2-3xFLAG baits from stable 293T cell lines; immunoblots with anti-Hook1, anti-Hook2, anti-Hook3; BioID2-3xFLAG as control. Background: A western blot detects proteins with antibodies after separation by electrophoresis.

Amino acid sequences for entries named in this document (tags omitted).
UniProt Q86V87: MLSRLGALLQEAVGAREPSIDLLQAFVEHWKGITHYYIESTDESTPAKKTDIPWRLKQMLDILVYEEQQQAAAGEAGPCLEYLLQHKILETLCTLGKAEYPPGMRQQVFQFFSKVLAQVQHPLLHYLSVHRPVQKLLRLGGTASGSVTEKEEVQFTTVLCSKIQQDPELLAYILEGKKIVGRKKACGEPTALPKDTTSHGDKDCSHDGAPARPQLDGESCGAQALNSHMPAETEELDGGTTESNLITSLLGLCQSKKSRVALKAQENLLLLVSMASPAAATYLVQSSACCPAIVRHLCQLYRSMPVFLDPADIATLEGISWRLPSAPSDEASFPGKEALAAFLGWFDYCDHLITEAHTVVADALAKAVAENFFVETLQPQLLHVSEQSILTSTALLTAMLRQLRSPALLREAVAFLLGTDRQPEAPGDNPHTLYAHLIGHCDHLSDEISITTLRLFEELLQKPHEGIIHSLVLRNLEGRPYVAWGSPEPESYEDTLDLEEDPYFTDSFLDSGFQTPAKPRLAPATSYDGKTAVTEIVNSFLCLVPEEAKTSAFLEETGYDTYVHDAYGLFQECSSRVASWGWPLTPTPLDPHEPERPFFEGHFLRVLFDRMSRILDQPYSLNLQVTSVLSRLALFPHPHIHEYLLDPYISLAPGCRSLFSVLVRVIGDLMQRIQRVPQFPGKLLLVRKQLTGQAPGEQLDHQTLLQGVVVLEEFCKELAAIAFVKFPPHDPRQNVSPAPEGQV

Assay [2] concerns the target T1, HaloTag-Hook3-3xFLAG (human) (UniProt Q86VS8).
T1 sequence: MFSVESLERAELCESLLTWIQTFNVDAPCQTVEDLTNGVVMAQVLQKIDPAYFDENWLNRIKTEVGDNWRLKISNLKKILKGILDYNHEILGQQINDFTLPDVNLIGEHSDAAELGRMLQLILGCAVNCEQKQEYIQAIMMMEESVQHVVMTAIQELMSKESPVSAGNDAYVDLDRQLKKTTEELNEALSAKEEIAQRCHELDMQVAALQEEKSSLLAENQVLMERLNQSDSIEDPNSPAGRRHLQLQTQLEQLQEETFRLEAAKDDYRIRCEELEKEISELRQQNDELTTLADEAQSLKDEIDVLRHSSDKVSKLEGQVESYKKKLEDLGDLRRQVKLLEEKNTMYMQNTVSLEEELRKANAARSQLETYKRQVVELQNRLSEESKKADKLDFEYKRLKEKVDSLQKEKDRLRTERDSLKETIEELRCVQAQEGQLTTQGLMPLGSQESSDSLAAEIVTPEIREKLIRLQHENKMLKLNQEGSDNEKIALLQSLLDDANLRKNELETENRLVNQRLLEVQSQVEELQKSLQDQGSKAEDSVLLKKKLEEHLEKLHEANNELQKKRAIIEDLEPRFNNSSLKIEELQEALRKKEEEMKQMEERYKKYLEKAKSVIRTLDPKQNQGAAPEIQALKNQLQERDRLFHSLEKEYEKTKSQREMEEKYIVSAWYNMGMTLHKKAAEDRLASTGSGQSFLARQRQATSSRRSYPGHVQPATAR
Briefly: co-IP; FLAG affinity resin IP of HaloTag-Hook-3xFLAG baits from transiently transfected 293T cells; immunoblots with anti-FHIP1B, anti-FHIP2A, anti-FHIP2B; sfGFP-3xFLAG as control.

Results are given in words; binding and its absence hold for the method and conditions named. In cells and extracts the contact can be indirect. Some binding calls cover weakened binding; strength is not graded here. Where a sequence is shown, tags or fusion partners need not be part of it.

Turning to “Hook1, endogenous in 293T cells (from UniProt Q9UJC3 1-728)”, the binding entry in assay [1] is “binds”.

Regarding “FHIP2B, endogenous in 293T cells (from UniProt Q86V87 1-743)”, in assay [2], the binding entry is “binds”.

The values above are taken from paper PMC8730729.
